# Reference: ChEMBL document CHEMBL1156829
# The full ranking holds about 5,400 compounds; the median of “IFI” is about 2, and the highest 2% start at about 22. The list shows a part of the results.
# Assay: NOVARTIS: Inhibition Frequency Index (IFI) - the number of HTS assays where a compound showed > 50% inhibition/induction, expressed as a percentage of the number of assays in which the compound was tested.
# Format: functional
row,SMILES,IFI [%]
1,CCOC(=O)c1c(NC(=O)CSc2nnc(CNC(=O)c3cccs3)n2-c2cccc(Cl)c2)sc2c1CCCC2,1.25
2,OCC1CCCN1c1nccnc1-c1ccccc1Oc1ccccc1 (centres undefined),0
3,O=C1C=C(Nc2ccc(O)cc2)c2ccccc2C1=O,7.75
4,COc1ccc(-c2cnc3ccc(NC4CCOCC4)nn23)cc1OC,0
5,O=C(Nc1cc(Cl)ccc1O)c1cnn2c(C(F)(F)F)cc(-c3ccc(F)cc3)nc12,2.3
6,O=C1CCC2C3C=CC(C3)C12 (centres undefined),1.25
7,O=C(NC1CC1)c1ccc(N2CCC(Cc3ccccc3)CC2)c([N+](=O)[O-])c1,0
8,CCc1c2ccc(C)n2cc[n+]1CC,6.02
9,Cc1ccc(-c2c3c(nc4sc(C(=O)Nc5ccc(Cl)cc5)c(N)c24)CCCC3)o1,2.3
10,CCCCC(CC)C(=O)N(CCCC(C)Nc1cc(OC)cc2cccnc12)Cc1ccc(OC)c(OC)c1 (centres undefined),1.85
11,CCc1n(CC(=O)OC2CC(C)CCC2C(C)C)c2ccccc2[n+]1C (centres undefined),7.14
12,Cc1cc(Nc2ccc(Br)cc2)n2nc(C)nc2n1,1.96
13,CCCCCc1ccc(OCCCC[n+]2cccc(C)c2C)c(CCCCC)c1,7.14
14,Cc1ccc(Cl)cc1Nc1nc2ccccc2n2c(C)nnc12,0
15,CCOC(=O)c1c(CNCCN(CC)CC)n(C)c2cc(Br)c(OC(C)=O)cc12,0
16,CCOc1ccc(NC(=O)c2ccc(I)o2)cc1,7.69
17,CN(CCCNc1ccnc2cc(Cl)ccc12)C(=O)c1cccc(Cl)c1,1.85
18,CCOc1ccccc1NC(=O)Cn1c(=O)n(Cc2ccccc2)c(=O)c2c(C)c(C(=O)N(C)C)sc21,6.25
19,Cc1cc(N2CCN(c3ccccn3)CC2)n2c(nc3ccccc32)c1C#N,0
20,CCCCCCCC(=O)N1CCN(CCN(Cc2ccc(F)cc2)C(=O)c2c(-c3c(F)cccc3Cl)noc2C)CC1,4.81
21,CC1=C(CC(=O)c2ccc(Cl)cc2)C(=O)c2ccccc2C1=O,9.76
22,COC(=O)C1=CNC=C(C(=O)OC)C1c1ccc(Cl)c(Cl)c1,6.1
23,COc1ccc([N+](=O)[O-])cc1NC(=O)C(C)Nc1ccc(N(C)C)cc1 (centres undefined),6.25
24,COc1ccc(OC)c(-c2ccc(O)c(CNCC(C)c3ccccc3)c2)c1 (centres undefined),3.51
25,CN(C)CCNc1cc(-c2ccc3ccccc3c2)nc2ccccc12,4.51

row,SMILES,IFI [%]
1,COc1ccc(Nc2nc(NN=Cc3cccc([N+](=O)[O-])c3)nc(Nc3ccc([N+](=O)[O-])cc3)n2)cc1,5.26
2,O=[N+]([O-])c1ccc2nc(NC3CCCCC3)c(NC3CCCCC3)nc2c1,7.69
3,Cc1ccc(NC2=C(c3ccc(C(F)(F)F)cc3)C(=O)c3ccccc32)cc1C,0
4,O=[N+]([O-])c1cc(C(F)(F)F)c(Cl)c([N+](=O)[O-])c1Nc1cc(C(F)(F)F)ccc1Cl,21.2
5,Cc1cc(N2CCCCC2)nc2ccc(NC(=O)c3cncc(Br)c3)cc12,0
6,O=c1c2ccccc2[nH]c2ccc(F)cc12,0
7,CCOc1ccc2nc(NCCNC(=O)c3ccco3)c(C)cc2c1,3.9
8,CC(C)(C)CC(C)(C)Nc1c(-c2ccccc2OC(=O)C2CCCC2)nc2ccccn12,3.77
9,CCN(CC)CCCC(C)Nc1c2ccc(Cl)cc2nc2ccc(OC)cc12 (centres undefined),6.95
10,c1ccc2c(c1)c1c(c3ccccc32)CN2CCCC2C1 (centres undefined),3.51
11,CCOC(=O)c1ccc(NC(=O)c2sc(NC(=O)c3cc(OC)c(OC)c(OC)c3)c(C(=O)OCC)c2C)cc1,2.33
12,CCCCCN(C(=O)Nc1ccccc1OC)C(CC)c1nc2ccccc2c(=O)n1-c1ccccc1OC (centres undefined),1.96
13,CCCCCC(=O)Oc1ccccc1-c1nc2cc(C)ccn2c1NC(C)(C)CC(C)(C)C,4.67
14,O=C(NCCCCNc1ccnc2cc(Cl)ccc12)c1ccco1,0.943
15,CCOC(=O)c1cnc2ccccc2c1NCCCN(C)C,0
16,O=C(Nc1ccc(F)c(F)c1)c1cc2cc(C3(O)CCN(Cc4ccccc4F)CC3)ccc2o1,2.97
17,CCN1C(=Cc2sc3ccccc3[n+]2C)C=Cc2ccc(C)cc21,23.8
18,CCOC(=O)c1c(N)n(-c2ccc(NC(=O)c3cccc([N+](=O)[O-])c3)cc2)c2nc3ccccc3nc12,6.25
19,COc1cccc2cc(-c3nc(-c4ccccc4)cs3)c(=O)oc12,6.45
20,Oc1cccc(Nc2nc(NCC3CCCO3)c3ccccc3n2)c1 (centres undefined),1.59
21,O=C(Nc1ccc(C2=NCCN2)cc1)c1cc(Cl)c(C(=O)Nc2ccc(C3=NCCN3)cc2)cc1Cl,0
22,CSCCN1CCc2ccc3[nH]cc(-c4cccc(Cl)c4)c3c2C1,5.56
23,CC(=O)C1=C(O)C(=O)N(c2ccc(Br)cn2)C1c1ccccc1[N+](=O)[O-] (centres undefined),0
24,CC1=NOC(=O)/C1=C/c1ccc(-c2ccc([N+](=O)[O-])cc2)o1,0
25,CCSc1ccc2ccccc2[n+]1CC,0.746

row,SMILES,IFI [%]
1,Cc1cc(=O)n(-c2nc(-c3ccccc3O)nc3ccccc23)[nH]1,0
2,Cc1sc2ncn(CC(=O)N(C)Cc3ccccc3)c(=O)c2c1S(=O)(=O)N1CCOCC1,0
3,Cc1ccccc1N1C(=O)N(c2ccccc2)C2CS(=O)(=O)CC21 (centres undefined),4.76
4,CCOC(=O)c1c(NC(=O)CSc2nnc(CNC(=O)c3cccc(OC)c3)n2C2CCCCC2)sc2c1CCCC2,0
5,COc1cccc(C(=O)Oc2ccccc2-c2nc3ccccn3c2NC(C)(C)CC(C)(C)C)c1,5.56
6,CN1CCCC1CCNc1ncc(C(=O)NCc2ccccc2)c(NCC2CCCCC2)n1 (centres undefined),3.88
7,Oc1ccc(Nc2nc(NCc3ccco3)c3ccccc3n2)cc1,0
8,COc1cccc(C(=O)NC(c2ccccc2OC)c2cc(Cl)c3cccnc3c2O)c1 (centres undefined),0
9,CCOC(=O)c1ccc(NC(=O)c2cc(-c3ccccc3)nc3ccc(C)cc23)cc1,3.49
10,Cc1cc(Cl)ccc1NC(=O)c1ccccc1[N+](=O)[O-],0.82
11,O=[N+]([O-])c1ccc(-n2cccc2C=NNc2ncnc3sc4c(c23)CCCC4)cc1,0
12,COc1cc(NC(C)CCCN(Cc2ccc(F)cc2)C(=O)c2ccccc2F)c2ncccc2c1 (centres undefined),2.15
13,CCCCCC(=O)N1c2ccccc2N=C2CC(c3ccc(OC)c(OC)c3)CC(O)=C2C1c1ccc(C(F)(F)F)cc1 (centres undefined),3.37
14,OCCNc1nc(Nc2ccc(Cl)cc2)nc2ccccc12,1.47
15,O=C(C1Cc2ccccc2CN1S(=O)(=O)c1ccc(F)cc1)N1CCOCC1 (centres undefined),0
16,Fc1ccc2[nH]c3c(NCCN4CCCCC4)ncnc3c2c1,5.88
17,c1ccc(CNc2nc(Nc3ccccc3)nc3ccccc23)cc1,8.21
18,COc1cnc(-c2ccccn2)nc1N1CCCC1,8.43
19,COc1cc2nc(N3CCN(c4nc(N)c5cc(OC)c(OC)cc5n4)CC3)nc(N)c2cc1OC,23.1
20,Cc1ccc(CN2C[C@H](n3cnnn3)C[C@H]2C(=O)NCCc2cccc(Cl)c2)c(C)c1,1.94
21,CCN(CC)CCN(C)C1CCc2c(c(C(=O)N3CCCC3)nn2C)C1 (centres undefined),1.1
22,O=C(Cc1cccs1)N1CCOc2c(cc(-c3csc4ccccc34)cc2OCCc2ccccn2)C1,1.96
23,COc1ccc(CCNC(=S)Nc2ccccc2C)cc1OC,0
24,CC(C)CN(C(C)C(=O)NC(CN1CCCC1)c1ccccc1)S(=O)(=O)Cc1ccccc1 (centres undefined),1.96
25,CC(C)CNC(=O)c1cnc(NCCCN2CCCCC2C)nc1NCC(C)C (centres undefined),1.92

row,SMILES,IFI [%]
1,Cc1ccc(C2C3=C(CC(C)(C)CC3=O)N(Cc3ccc4c(c3)OCO4)C3=C2C(=O)CC(C)(C)C3)cc1,0
2,CCOC(=O)c1c(-c2ccc3c(c2)OCO3)[nH]c2cccc(OC)c2c1=O,0
3,COc1ccc(C(OCC(=O)N2CCSCC2)c2ccncc2Cl)cc1 (centres undefined),0.98
4,Cc1ccc(NC(=O)ON=C2CCCC2)cc1,0
5,COC(=O)C1=C(C)NC2=C(C(=O)CC(c3ccc(OC)c(OC)c3)C2)C1c1ccccc1F (centres undefined),4.76
6,COc1ccc(OC)c(C2C3=C(CC(C)(C)CC3=O)N(c3ccc(Cl)c(Cl)c3)C3=C2C(=O)CC(C)(C)C3)c1,0
7,O=C(Nc1ccon1)c1cc(-c2cccnc2)nc2ccc(Cl)cc12,0
8,Cc1ccc(N2C(=O)C3C(C2=O)C2(c4ccccc4)C(=O)C3(c3ccccc3)C(c3ccccc3)=C2c2ccccc2)cc1[N+](=O)[O-] (centres undefined),0
9,CC(=O)Nc1ccc(S(=O)(=O)NC2C(C)(C)C3CC[C@]2(C)C3)cc1 (some centres undefined),1.7
10,COc1cc2c(cc1OC)-c1cc3ccc(OC)c(OC)c3c[n+]1CC2,1.61
11,CC(CCCC(C)(C)O)Nc1cncc(-c2ccc(C(N)=O)cc2)n1 (centres undefined),0
12,Cc1ccc2c(c1)c(-c1ccccc1)c(-c1ccccc1)n2CC(O)CN1CCN(Cc2ccccc2)CC1 (centres undefined),3.6
13,CCOC(=O)c1cnc2ccc(OCC)cc2c1NCCCN(CC)CC,8.33
14,O=C(CNC(=O)c1ccccc1)Oc1ccc(Cl)cc1,7.14
15,CN1CCc2c(C#N)c(N3CCCC3)nc(N3CCCC3)c2C1,3.51
16,CN1C(=O)NC(c2cccnc2)C(C(=O)c2cccs2)C1(O)C(F)(F)F (centres undefined),0
17,COc1ccc(C2C(C(=O)OC3CCCCC3)=C(C)Nc3nnnn32)cc1 (centres undefined),0
18,COc1cc(NC(=O)Cn2ccc3ccc([N+](=O)[O-])cc32)cc(OC)c1OC,3.03
19,O=C(Nc1cccc(C(F)(F)F)c1)c1ccc(-c2cccs2)cc1,5.88
20,CCC1=NN2C(=N)/C(=C/c3ccc(OCCOc4ccc(Br)cc4)c(OC)c3)C(=O)N=C2S1,0
21,Cc1cc(C)c2c(c1)-c1c(ssc1=S)C(C)(C)N2C(=O)c1ccccc1,0
22,COc1ccc(Nc2nc(Nc3ccc(OC)cc3)c3ccccc3n2)cc1,7.52
23,COc1ccccc1NC(=O)N(CCC(C)C)C(C)c1nc2ccccc2c(=O)n1-c1ccccc1Cl (centres undefined),0.917
24,CC(C)(C)CC(=O)NCc1ccc(OC2CCN(CC(c3ccccc3)c3ccccc3)CC2)cc1,7.04
